# Test results published in the RNAGym collection of RNA variant scans (doi:10.7554/elife.90254).
# The source gives no read counts; variants with many changes may rest on few reads.
# B1: OR4K15 (parent)
# chain: GUUAACGGUCAUAGGCCAUGGAAACUAGGAGCACCAUUUCGCUGCCAGUGAAGAAAUGAACAAAGAAAAUCUGGGCCAGGCAGGCAUCAAAAGAAAUAGUCUUGCGCUCAACCAGAAAGUCUGUAAUCAUUUUAAGGGUA
# Variants of: B1
# Assay: self-cleavage, relative activity (ratio to wild type); higher = more cleavage; in vitro, sequencing; the parent is a self-cleaving ribozyme
row,Variant,self-cleavage
1,A18G A33G A55G U108C,0.03
2,A13G A24G A52G A92G U97A,0.87
3,A13G A23G A62G A69G,0.57
4,A18G A27G A117G,2.04
5,C17U A24G U39C C76U A90G U97A U120C,0.13
6,A18G A63G A64G,1.04
7,A18G A27G A63G A114G A117G,1.02
8,A18G A22G U122A,1.31
9,G14A A118G U127C,0.24
10,A18G A62G A125G,0.44
11,A13G C40U U43G A52C,0.69
12,A18C G48C A82G A126G,0.21
13,A18G A56G U132C,1.73
14,A18G A52G A91G,1.37
15,G15A U37C U43C A60U G84U,0.72
16,A13U G29U A52G,0.97
17,A13U U37C A51G A118U,0.42
18,A18C U49C A60G,0.67
19,A13U A62U A89G U120A,1.85
20,A13U A24G A63G A90G G106A U122A,0
21,A18G A23G C35A U132C,0

row,Variant,self-cleavage
1,G14A A52U U120C A134G,0.29
2,G14A G20A A62G A118G,0.83
3,G15A A94G A134G,1.28
4,A18G A36G G44A,1.11
5,G15A A96G U97C C113A,0
6,A13G A51G A117U,1.01
7,G14A A60G G93U,1.47
8,A18G A63G A67G A91G U108C,0.07
9,A18G A55G A68G U133C,1.69
10,A13G A51G U132C,0.66
11,A13G A36G U38A U49A,0.56
12,A13U A92G U130C,1.27
13,A18G A33G U72C,0.27
14,A13G A30U A33G C61U,0.94
15,A13U A22U U39C A47G A60G,0.71
16,A18C A54G A116C,0.09
17,A18C U49A A66G,0.94
18,C16U A89G A91G,1.29
19,A13G A55U A64G A91G,0.41
20,A13U U43A A63U A66G A117G U122A U132C,1.7
21,A13G U19C A24G A56G A114G,0.78

row,Variant,self-cleavage
1,A13C A33G U39C,0.74
2,C16G A24G A62U A110G,0.22
3,A13U A51G A55G U120C,0.58
4,A13G A47G G73A A78U A86G A95G,0.22
5,A18G A54U A56G C85A,0.47
6,G15A A117G G136U,2.02
7,A18G A36G A66G U100C G104A,0.09
8,A13G A62G U72C A96U,1.09
9,A13U A82G A92G U108C,0.03
10,A13G U49A U87C A92G U132C,1.03
11,A13U U37C A47U A135C,1.45
12,A13G A63G A66G U72C A96G U108C,0.05
13,A18G A52U A63G,1.87
14,A13G A47G A111U A140G,0.15
15,A18G A23G A64C,1.07
16,G15U G41A G74A,0.21
17,A18G A23G U49C A86G A118U,0.29
18,A13G A82U A117U,0
19,G14U C35U U102A U122C,0.21
20,A13G U49C A52G U72C A78G U87C A96G,0.51
21,A13U U26A A55G A110G U131C,0.62

row,Variant,self-cleavage
1,A18G A54U A91G,1.68
2,A18G A60G U122C U124C,0.38
3,A13G C32U U57G A86G A96G,0.42
4,G15A U39C A129G,1.73
5,C17A A22G A117G,0.83
6,A13U A24G U39C A51G,1.89
7,A13G U37C A63G A67G A78U A86G U102G U130C,0.11
8,A18G A23G G31C U108C U132C,0.01
9,A13G A24G A60G A66G,1.06
10,A13G A86G U127C,1.36
11,G15A A47G A86G C109U,0.08
12,A13C A24G U108C,0.1
13,A18G A30G U97C A110G,0.12
14,G14U C45G A110U,1.55
15,A18C A54U A91G A135G,1.43
16,A13G A47U A51G A54U U103C,0.25
17,G15A A18G A126G,0.72
18,G14C U37C A63U A92G A94G,1.88
19,A18C U26C U43C,1.33
20,C16G A51G A86U A114U,0.13
